Measurements: PubChem BioAssay (NCI)
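Cells were grown in 96-well plates and exposed to each compound for 48 hours at five concentrations; endpoints were interpolated linearly between bracketing concentrations, or set to the highest concentration if not reached. GI50 is the concentration that inhibits growth by half.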 Certain results were filed several times, with different values. They are shown here; other results are not. An entry can have further records. A record mostly stands for its own series of concentrations, not given here; some values may only mark the edge of a range. Marks in square brackets tell the records apart. Letters count within one entry.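 TGI: total growth inhibition.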

Key:
Experiment in all cases: inhibition of tumour cell growth, NCI panel, 48 h
COLO 205 colon = system: COLO 205 colon
SN12C renal = system: SN12C renal
SF-295 CNS = system: SF-295 CNS
PC-3 prostate = system: PC-3 prostate
OVCAR-3 ovarian = system: OVCAR-3 ovarian
SR leukemia = system: SR leukemia
SK-MEL-2 melanoma = system: SK-MEL-2 melanoma
HCT-116 colon = system: HCT-116 colon
SNB-19 CNS = system: SNB-19 CNS
RPMI-8226 leukemia = system: RPMI-8226 leukemia
MOLT-4 leukemia = system: MOLT-4 leukemia
LOX IMVI melanoma = system: LOX IMVI melanoma
HCC-2998 colon = system: HCC-2998 colon
SW-620 colon = system: SW-620 colon
NCI-H522 lung = system: NCI-H522 lung
HOP-92 NSCLC = system: HOP-92 NSCLC
OVCAR-8 ovarian = system: OVCAR-8 ovarian
786-0 renal = system: 786-0 renal
TK-10 renal = system: TK-10 renal
UACC-62 melanoma = system: UACC-62 melanoma
NCI-H23 lung = system: NCI-H23 lung
HT29 colon = system: HT29 colon
HOP-62 NSCLC = system: HOP-62 NSCLC
U251 CNS = system: U251 CNS
MDA-N = system: MDA-N
K-562 leukemia = system: K-562 leukemia
CCRF-CEM leukemia = system: CCRF-CEM leukemia
UACC-257 melanoma = system: UACC-257 melanoma
A549 NSCLC = system: A549 NSCLC
HCT-15 colon = system: HCT-15 colon
EKVX NSCLC = system: EKVX NSCLC
NCI-H460 lung = system: NCI-H460 lung
NCI-H226 lung = system: NCI-H226 lung
ACHN renal = system: ACHN renal
HS 578T breast = system: HS 578T breast
HL-60(TB) leukemia = system: HL-60(TB) leukemia
IGROV1 ovarian = system: IGROV1 ovarian
SK-OV-3 ovarian = system: SK-OV-3 ovarian
SNB-75 CNS = system: SNB-75 CNS
SF-268 CNS = system: SF-268 CNS
BT-549 breast = system: BT-549 breast
KM12 colon = system: KM12 colon
CAKI-1 renal = system: CAKI-1 renal
T-47D breast = system: T-47D breast
DU-145 prostate = system: DU-145 prostate
UO-31 renal = system: UO-31 renal
M14 melanoma = system: M14 melanoma
MCF7 breast = system: MCF7 breast

With `COc1cccc2c1C(=O)c1c(O)c3c(c(O)c1C2=O)C[C@@](O)(C(=O)CO)C[C@@H]3OC1CC(N)C(O)C(C)O1` (some centres undefined) the TGI (COLO 205 colon) was 250 nM [sample A, mean of 2 tests] and 1.14 µM [sample A, mean of 2473 tests] and 1.56 µM [sample A, mean of 3 tests] and 1.32 µM [sample A, mean of 4 tests] and 2.07 µM [sample B, mean of 3 tests], the TGI (SN12C renal) was 250 nM, 3.95 µM, 20.2 µM, 5.09 µM [sample A] and 15.8 µM [sample B] and the TGI (SF-295 CNS) was 250 nM [sample A, mean of 2 tests] and 1.29 µM [sample A, mean of 2474 tests] and 2.14 µM [sample A, mean of 3 tests] and 1.53 µM [sample A, mean of 4 tests] and 2.75 µM [sample B, mean of 3 tests]. The TGI (PC-3 prostate) was 2.98 µM, 2.04 µM, 10.3 µM [sample A] and 2.81 µM [sample B], the TGI (OVCAR-3 ovarian) was 4.73 µM, 2.8 µM, 8.64 µM [sample A] and 7.15 µM [sample B] and the TGI (SR leukemia) was 250 nM, 871 nM, 25 µM, 1.63 µM. The TGI (SK-MEL-2 melanoma) was 23.4 nM, 772 nM, 1.68 µM, 633 nM [sample A] and 538 nM [sample B], the TGI (HCT-116 colon) was 250 nM, 6.88 µM, 4.94 µM, 15.1 µM [sample A] and 2.24 µM [sample B] and the TGI (SNB-19 CNS) was 250 nM, 3.96 µM, 3.67 µM, 3.13 µM [sample A] and 2.99 µM [sample B]. For the same molecule, the TGI (RPMI-8226 leukemia) was 250 nM, 1.58 µM, 3.67 µM, 2.32 µM [sample A] and 3.04 µM [sample B], the TGI (MOLT-4 leukemia) was 250 nM, 428 nM [mean of 2 tests] and 773 nM [mean of 2407 tests] and 2.05 µM [mean of 4 tests] and the TGI (LOX IMVI melanoma) was 250 nM, 1.37 µM, 2.03 µM [sample A] and 1.3 µM [sample B]. For the same molecule, the TGI (HCC-2998 colon) was 250 nM, 1.21 µM, 1.05 µM, 2.61 µM [sample A] and 1.84 µM [sample B], the TGI (SW-620 colon) was 250 nM, 6.03 µM, 4.12 µM, 7.73 µM [sample A] and 5.72 µM [sample B] and the TGI (NCI-H522 lung) was 90.9 nM [sample A, mean of 2 tests] and 484 nM [sample A, mean of 2310 tests] and 546 nM, 374 nM [sample A, mean of 3 tests] and 1.29 µM [sample B, mean of 3 tests]. The TGI (HOP-92 NSCLC) was 183 nM [sample A, 1 test] and 193 nM [sample A, mean of 2 tests] and 1.14 µM [sample A, mean of 2238 tests] and 3.24 µM [sample A, mean of 3 tests] and 2.25 µM [sample B, mean of 3 tests], the TGI (OVCAR-8 ovarian) was 250 nM, 4.77 µM, 1.17 µM, 2.6 µM [sample A] and 7.2 µM [sample B] and the TGI (786-0 renal) was 250 nM, 3.82 µM, 8.29 µM, 11.6 µM [sample A] and 2.67 µM [sample B]. The TGI (TK-10 renal) was 243 nM, 4.96 µM, 4.64 µM, 10.7 µM [sample A] and 10.7 µM [sample B], the TGI (UACC-62 melanoma) was 250 nM [sample A, mean of 2 tests] and 352 nM [sample A, mean of 2407 tests] and 1.61 µM [sample A, mean of 3 tests] and 546 nM [sample A, mean of 5 tests] and 491 nM [sample B, mean of 3 tests] and the TGI (NCI-H23 lung) was 250 nM, 869 nM, 627 nM, 1.12 µM [sample A] and 533 nM [sample B]. The TGI (HT29 colon) was 4.99 µM, 7.36 µM, 1.33 µM [sample A] and 8.73 µM [sample B], the TGI (HOP-62 NSCLC) was 250 nM [sample A, mean of 2 tests] and 1.28 µM [sample A, mean of 2444 tests] and 589 nM [sample A, mean of 3 tests] and 5.3 µM [sample A, mean of 4 tests] and 1.84 µM [sample B, mean of 3 tests] and the TGI (U251 CNS) was 250 nM, 3.7 µM, 374 nM, 3.74 µM [sample A] and 4.72 µM [sample B]. The GI50 (MDA-N) was 184 nM [sample A, 1 test] and 281 nM [sample A, mean of 1586 tests] and 433 nM [sample A, mean of 3 tests] and 112 nM [sample B, 1 test], the TGI (K-562 leukemia) was 25 µM [sample A, 1 test] and 250 nM [sample A, mean of 2 tests] and 5.89 µM [sample A, mean of 2384 tests] and 11.9 µM [sample A, mean of 4 tests] and 4.65 µM [sample B, mean of 3 tests] and the TGI (CCRF-CEM leukemia) was 250 nM, 2.06 µM, 16.2 µM, 11.4 µM [sample A] and 5.47 µM [sample B]. For the same molecule, the TGI (UACC-257 melanoma) was 207 nM, 1.11 µM, 1.38 µM, 756 nM [sample A] and 2.17 µM [sample B], the TGI (A549 NSCLC) was 250 nM, 2.64 µM, 295 nM [sample A] and 4.3 µM [sample B] and the TGI (HCT-15 colon) was 17.6 µM [sample A, mean of 2550 tests] and 21.1 µM [sample A, mean of 3 tests] and > 72.9 µM [sample A, mean of 4 tests] and 45.6 µM [sample B, mean of 3 tests]. The TGI (EKVX NSCLC) was 250 nM, 4.19 µM, 5.29 µM, 5.95 µM [sample A] and 1.52 µM [sample B], the GI50 (NCI-H460 lung) was 22.2 nM [sample A, mean of 2 tests] and 7.22 nM [sample A, mean of 2385 tests] and 24.2 nM [sample A, mean of 4 tests] and < 25.3 nM [sample B, mean of 2 tests] and the TGI (NCI-H460 lung) was 229 nM [sample A, mean of 2 tests] and 1.61 µM [sample A, mean of 2385 tests] and 1.13 µM [sample A, mean of 4 tests] and 1.38 µM [sample B, mean of 2 tests]. The TGI (NCI-H226 lung) was 179, 518, 322, 717 nM [sample A] and 355 nM [sample B], the TGI (ACHN renal) was 1.06 µM [mean of 1637 tests] and 250 nM [mean of 2 tests] and 10.3 µM [mean of 3 tests] and the TGI (HS 578T breast) was 250 nM [sample A, 1 test] and 1.73 µM [sample A, mean of 2318 tests] and 1.26 µM [sample A, mean of 3 tests] and 5.11 µM [sample A, mean of 4 tests] and 354 nM [sample B, 1 test]. The TGI (HL-60(TB) leukemia) was 193 nM, 1.51 µM, 1.26 µM, 3.05 µM [sample A] and 2.93 µM [sample B], the TGI (IGROV1 ovarian) was 19.7 nM, 22.9 µM [sample A, mean of 2 tests] and 5.04 µM [sample A, mean of 2426 tests] and 12.8 µM [sample A, mean of 4 tests] and 10.9 µM [sample B, mean of 3 tests] and the TGI (SK-OV-3 ovarian) was 6.4 µM, 19.6 µM, 22 µM [sample A] and 5.24 µM [sample B]. For the same molecule, the TGI (SNB-75 CNS) was 250 nM [sample A, mean of 2 tests] and 560 nM [sample A, mean of 2307 tests] and 1.39 µM [sample A, mean of 3 tests] and 468 nM [sample A, mean of 4 tests] and 1.26 µM [sample B, mean of 3 tests], the TGI (SF-268 CNS) was 250 nM [sample A, mean of 2 tests] and 1.87 µM [sample A, mean of 2484 tests] and 1.55 µM [sample A, mean of 3 tests] and 1.63 µM [sample A, mean of 4 tests] and 2.95 µM [sample B, mean of 3 tests] and the TGI (BT-549 breast) was 250 nM, 1.59 µM, 1.84 µM, 2.61 µM [sample A] and 3.92 µM [sample B]. The TGI (KM12 colon) was 250 nM, 4.35 µM, 2.06 µM, 11.6 µM [sample A] and 6.13 µM [sample B], the TGI (CAKI-1 renal) was 250 nM, 4.15 µM, 25 µM, > 55.6 µM [sample A] and 2.61 µM [sample B] and the TGI (T-47D breast) was 250 nM, 2.58 µM, 489 nM, 2.6 µM [sample A] and 656 nM [sample B]. The TGI (DU-145 prostate) was 3.29 µM [sample A, mean of 1743 tests] and 250 nM, 17.6 µM [sample A, mean of 2 tests] and 2.4 µM [sample B, 1 test], the TGI (UO-31 renal) was 250 nM [sample A, mean of 2 tests] and 4.75 µM [sample A, mean of 2444 tests] and 1.7 µM, 4.65 µM [sample A, mean of 3 tests] and 8.51 µM [sample B, mean of 3 tests] and the TGI (M14 melanoma) was 250 nM [sample A, mean of 2 tests] and 1.21 µM [sample A, mean of 2503 tests] and 3.34 µM [sample A, mean of 3 tests] and 1.23 µM [sample A, mean of 4 tests] and 1.54 µM [sample B, mean of 3 tests]. For the same molecule, the TGI (MCF7 breast) was 225 nM, 4.77 µM, 9.85 µM, 9.39 µM.
